To fix the notation:
B1: CPEB3 Ribozyme (parent)
chain: UAACAGGGGGCCACAGCAGAAGCGUUCACGUCGCAGCCCCUGUCAGAUUCUGGUGAAUCUGCGAAUUCUGCUGUAUAUCUC

The source gives no read counts; variants with many changes may rest on few reads.

This data set covers variants of B1. Put plainly: self-cleavage, relative activity (ratio to wild type); higher = more cleavage; in vitro, sequencing. In outline:
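For each CPEB3 ribozyme variant, relative activity is its cleaved/total read fraction divided by the unmutated ribozyme's. Barcoded error-prone PCR libraries were transcribed by T7 RNA polymerase (5 hours, 37°C) and held in DNase I for 15 min before an EDTA stop, with cleavage occurring throughout. Template-switching reverse transcription and Illumina sequencing were used to read the RNAs. A 5-read minimum applied, and results are the mean of three batches.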
On to A13U U26C C29U U41C U48C A56U, for which the self-cleavage worked out at 0.15.
The same measure for A13U U51C A64U U66C: 0.44; for A13U A28G A47G U54C: 0.49.
Regarding A13U U25C U60C G63A A75U, the self-cleavage is 0.08.
The same measure for A13U U54C U66C A75G: 0.38; for A13U A21G G63A C68G: 0.09; for A13U A21C C81U: 0.27.
As for A13U A20G U25A C71G A75U U78C, the self-cleavage was 0.09.
The same measure for A13U U25A U80A: 0.21; for A13U C34G U66C U72C: 0.14; for A13U U51C A57G: 1.16.
Then A13U U72C U74A, with 1.27; and A13G U26C U49C U58C, with 0.23.
Then A13U A28U U78C, with 1.01; and A13U U60C U69C, with 0.35; and A13U A57G C71U A75U, with 0.77.
A13U G19U U26C U41C: the self-cleavage was 0.24.
The same measure for A13U U25C U49C A56G: 0.57; for A13G U74C U80G: 0.77.
Take A13U U25G A28G A57G: the self-cleavage stood at 0.23.
Consider A13U A64C U67A, for which the self-cleavage worked out at 0.25.
For A13U A28G A35G U54C U80C, the self-cleavage came out at 1.19.
Regarding A13U C27A C32A U51A U58A A75U, the self-cleavage stood at 0.13.
As to A13U A18U U60C C62U A64U U78C, the self-cleavage stood at 0.11.
In the case of A13U C23U A56U, the self-cleavage stood at 0.11.
As for A13U U41C U49C, the self-cleavage is 0.85.
The same measure for A13U A15G U26C U49C U74C: 0.48.
For the variant A13G U51C A57G U58C, the self-cleavage was found to be 0.14.
Turning to A13U U58C U80C, the self-cleavage worked out at 0.57.
Turning to A13G U72C U78C, the self-cleavage came to 0.87.
Regarding A13U A47G U69A, the self-cleavage stood at 0.63.
The same measure for A13U G16A U51C: 0.62; for A13U C17U A18G U43G A47G A56G: 0.07.
On to A13U A28G U49C, for which the self-cleavage turned out to be 0.17.
The same measure for A13U C32A C34U U80C C81A: 0.08.
Turning to A13U C62U U74A U78C, the self-cleavage is 0.57.
Then A13U G63U U74A, with 1.26.
The same measure for A13U A20G U26C A28U G70A U74G A75G: 0.1; for A13U A18G U54C: 0.25.
Then A13U A20G C32G U54A A57G A64G A65G, with 0.02.
A13U U69C U72C: the self-cleavage is 0.2.
Consider A13U U67C U74A, for which the self-cleavage is 0.33.
For the variant A13U U25C G30C U51A A56G, the self-cleavage was 0.2.
A13U U26C A28G U43A A64U: the self-cleavage is 0.06.
The same measure for A13U G16C A21U A57G C62U A65U: 0.07; for A13U C38U U41A U51C A57U U60A U69C: 0.05; for A13U U31C G46C: 0.34.
In the case of A13U U43A A56U, the self-cleavage came to 0.97.
The same measure for A13U U26A C39U A56G: 0.2; for A13U U43A U72A C81U: 1.22.
Then A13U A35U A57G U60A A65G, with 0.04.
The same measure for A13U C17U C40G A45G U49A C59U U72C: 0.03.
Consider A13G U43C U49C, for which the self-cleavage came out at 0.39.
Regarding A13U A45U U66A U72A, the self-cleavage was determined as 0.12.
As to A13U G42A U51C, the self-cleavage was found to be 0.49.
Then A13U C14U U51C U69G, with 0.58; and A13U A21G U26A A47G U48C A57G, with 0.32.
The same measure for A13G U43G U48C: 0.14.
The same measure for A13U A28C A45U U49A U72A: 0.16; for A13U C59A A65G U72C U78C: 0.13.
A13U G30A A45C U60C C68A: the self-cleavage was 0.11.
A13U A20G U31C: the self-cleavage was 0.56.
As for A13U A18U U49C, the self-cleavage stood at 0.25.
The same measure for A13U U26A C32U A56G U66C U76C U78C: 0.02.
Turning to A13U A15U C29U G33U U48C A57G C62U, the self-cleavage is 0.03.
Then A13G U26C U31C C59U A64G, with 0.17.
Then A13U A15G A20G A35C A47G, with 0.08; and A13U A21G A47G A64U A75G, with 0.1.
For A13U U58A U74C U80C, the self-cleavage is 0.5.
As for A13G U26C C62U, the self-cleavage is 0.21.
The same measure for A13U A21U U43C C44U U69C U78C: 0.18; for A13G U48C U51C: 0.37.
Regarding A13U A18G A20G U25C U26C, the self-cleavage was found to be 0.44.
The same measure for A13U U26A U48C: 0.42; for A13U U43C U60A A64G: 0.26; for A13U U41C A45G U78C: 1.19.
In the case of A13U U48A G61C, the self-cleavage is 0.03.
The same measure for A13U G63A A64G U69C: 0.17.
As to A13U C17U G36A A45G A47C U51C U60C, the self-cleavage was found to be 0.05.
The same measure for A13U A15G U31G: 0.71.
A13U U25C U26C A47U U54C A56U A64G: the self-cleavage came out at 0.07.
The same measure for A13U U69A U78C: 1.03.
The same measure for A13G U31C C44U: 0.45; for A13G U43A A65G: 0.49.
